The record followed here is PubChem BioAssay AID1508642 (National Center for Advancing Translational Sciences (NCATS), 2021).

Structures are written as SMILES. Hit rate of the full screen: of about 43,000 compounds, about 200 (0.47%) were called active. About 12% were inconclusive and are not listed. Calls come from the whole dose curve; as a rule, active = well fitted cell-killing curve with a large enough effect; inconclusive = small, poorly fitted or top-dose-only effect, or effect the other way; inactive = flat fitted curve, though single readings scatter. Some of the results follow.
% is set by controls: 0 for no effect and ±100 for the full control effect.

This assay is described as follows: Cell viability qHTS assay in S16 Pmp22-F2sN cells. Note: nearly all actives have a fitted effect of over 65% in size. Particulars: S16 Pmp22-F2sN Schwann cells (luciferase reporters placed in the Pmp22 gene) viability, CellTiter-Glo, 24 h; series mostly up to 57.5 µM; activity change, negative = cytotoxicity: at the top concentration. Summed up: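 Luminescence from CellTiter-Glo, read by CCD camera after a 15 min room-temperature incubation, served as the viability signal. Reporter Schwann cells (S16 Pmp22-F2sN) had been treated with pin-transferred compounds for 24 h at 37C.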
`Cc1ccc(Cn2cc(CCC(=O)NCc3ccccc3F)c3ccccc32)cc1`: the “activity change, negative = cytotoxicity” value is inactive: 3.33%. Then `CCN(CC)S(=O)(=O)c1ccc2c(c1)N(CC(=O)N(C)Cc1ccccc1)C(=O)CO2`, with inactive: 8.28%; and `Cc1cc(C)c2c(n1)SCCN2C(=O)Nc1ccc(C(=O)Nc2cc(Cl)ccc2C)cc1`, with inactive: 2.91%; and `COc1cccc(C(=O)Nc2cc3cc(OC)ccc3oc2=O)c1`, with inactive: -2.06%.

On to `COC(=O)c1cc2sc(Cl)cc2n1Cc1nc(-c2ccc(OC)cc2)oc1C`, for which the “activity change, negative = cytotoxicity” value is inactive: -2.64%. Then `COc1ccc(N(CC(=O)NCCc2cccc(C)c2)S(=O)(=O)c2c(C)noc2C)cc1`, with inactive: -5.41%. Then `Cc1cc(C(=O)NCCc2ccc(Cl)cc2)c2c(C)nn(-c3cccc(F)c3)c2n1`, with inactive: 3.25%; and `CC1CCCN(c2cc3c(cc2F)c(=O)c(S(=O)(=O)c2cccc(Cl)c2)cn3C)C1` (stereo unspecified), with inactive: 23.2%; and `O=C(NC1CCCCC1)c1c[nH]c2ccc(S(=O)(=O)Nc3ccccc3F)cc2c1=O`, with inactive: -11%.

Regarding `CC(C)(C)c1ccc(C(=O)NC(Cc2c[nH]c3ccccc23)C(=O)OCC(=O)c2ccccc2)cc1` (stereo unspecified), the “activity change, negative = cytotoxicity” value was inactive: 9.39%. Consider `CCOC(=O)c1ccc(NC(=O)c2c(NCc3sccc3C)sc3c2CCCCC3)cc1`, for which the “activity change, negative = cytotoxicity” value was inactive: 16.7%.

Regarding `Cn1cc(C(=O)NCc2ccc(Cl)cc2)c(=O)c2cc(S(=O)(=O)N3CCCCCC3)ccc21`, the “activity change, negative = cytotoxicity” value is inactive: -2.83%. Consider `COc1ccc(S(=O)(=O)N(CC(=O)N(C)Cc2ccccc2)c2ccc(Cl)cc2)cc1`, for which the “activity change, negative = cytotoxicity” value is inactive: 25.9%. Then `Cc1cccc(OCC(=O)Nc2ccc(-c3nc4cc(C)ccc4o3)c(O)c2)c1`, with inactive: -0.51%; and `COc1ccc(NC(=O)CSc2nnc(NC(=O)Nc3ccccc3)s2)c(OC)c1`, with inactive: 0.19%.

In the case of `CCc1ccc(NC(=O)CSc2nc3ccccc3nc2Cc2ccccc2OC)cc1`, the “activity change, negative = cytotoxicity” value is inactive: -4.41%. As for `N#Cc1cccc(NC(=O)CCNS(=O)(=O)c2ccc3c(c2)CCN3C(=O)C2CC2)c1`, the “activity change, negative = cytotoxicity” value was inactive: 0.0052%. Then `Cc1ccc(-n2nnnc2CNC(=O)c2ccccc2C)cc1C`, with inactive: -9.6%; and `Cc1ccc2c(c1)C(c1ccc(F)cc1)N(C(=O)c1cccc(C(F)(F)F)c1)CC(=O)N2` (stereo unspecified), with inactive: -9.48%; and `COc1cccc(N2CCN(Cc3cc(=O)oc4cc(C)ccc34)CC2)c1`, with inactive: 8%.

Regarding `Cc1cc(C)cc(-n2ccnc2SCC(=O)Nc2nc3ccc(C)cc3s2)c1`, the “activity change, negative = cytotoxicity” value is inactive: 3.39%. Next, `CN(C)c1ccc(CNC(=O)Cn2ccc3cc(S(=O)(=O)N4CCCCCC4)ccc32)cc1`: inactive: -13%. Then `COc1ccc(-c2nc(Cn3c(=O)cc(C)c4c(C)nn(-c5ccccc5)c43)c(C)o2)c(OC)c1`, with inactive: 9.69%; and `CCOC(=O)c1c(C)[nH]c(CCC(=O)NCCCN2CCN(c3ccccc3F)CC2)c1C`, with inactive: -0.512%; and `O=C(Nc1nnc(S(=O)(=O)N2CCc3ccccc32)s1)c1ccccc1Cl`, with inactive: -1.72%. Then `Cc1c2cnn(CC(=O)N3CCN(c4ccc(F)cc4)CC3)c(=O)c2c(C)n1Cc1ccccc1F`, with inactive: -20.2%; and `Cc1ccc2c(CC(=O)N(Cc3cccc(Cl)c3)C3CCS(=O)(=O)C3)coc2c1` (stereo unspecified), with inactive: -0.196%. As to `CNS(=O)(=O)c1cn(CC(=O)N2CCN(c3ccccc3OC)CC2)cc1S(=O)(=O)NC`, the “activity change, negative = cytotoxicity” value is inactive: 13.4%. Then `CCOC(=O)C1CCCN(C(=O)c2ccc(NC(=O)c3nsc4ccccc34)cc2)C1` (stereo unspecified), with inactive: -10.3%; and `COC(=O)c1ccccc1NC(=O)Cn1c(=O)cc(C)c2c(C)nn(-c3cccc(Cl)c3C)c21`, with inactive: -2.92%; and `O=C(CCn1cnc2onc(-c3ccc(F)cc3)c2c1=O)N1CCN(c2ccccc2F)CC1`, with inactive: -9.95%.

In the case of `O=C(CC1Nc2cccc3cccc(c23)NC1=O)Nc1ccc(F)cc1` (stereo unspecified), the “activity change, negative = cytotoxicity” value is inactive: -27.5%. Next, `CS(=O)(=O)N1CCc2cc(C(=O)Nc3ccc(S(N)(=O)=O)cc3)ccc21`: inactive: 1.55%.

Consider `COc1cccc(Nc2sc(C(=O)c3ccc(Cl)cc3)c(N)c2C(=O)NCCc2ccc(OC)c(OC)c2)c1`, for which the “activity change, negative = cytotoxicity” value was inactive: -4.71%. For the compound `CCCN(Cc1cccs1)C(=O)Nc1ccc(F)c(Cl)c1`, the “activity change, negative = cytotoxicity” value is inactive: 2.39%.

As to `COc1cc(Cl)c(NC(=O)C(NS(=O)(=O)c2cccs2)C(C)C)c(OC)c1` (stereo unspecified), the “activity change, negative = cytotoxicity” value was inactive: -2.2%.

`Cc1ccc(-n2ncc(C(=O)NCCCN3CCN(C)CC3)c2C2CCN(C(=O)OC(C)(C)C)CC2)c(C)c1`: the “activity change, negative = cytotoxicity” value was inactive: 9.8%. `CC(C)(C)OC(=O)N1CCC(c2c(C(=O)N3CCCCC3)cnn2-c2ccc(F)cc2F)CC1`: the “activity change, negative = cytotoxicity” value was inactive: -1.57%.

Take `Cn1c(Oc2ccccc2)nc2c1c(=O)n(Cc1ccc(Cl)cc1Cl)c(=O)n2C`: the “activity change, negative = cytotoxicity” value was inactive: 1.05%. Next, `CCCSc1nnc2n(-c3cccc(C)c3)c(=O)c3c4c(sc3n12)CCCC4`: inactive: -11.8%; `Cc1ccc(C)c(NC(=O)Cn2c(=O)n(Cc3ccc4c(c3)OCO4)c(=O)c3ccccc32)c1`: inactive: 17%.

For `CCC1CN(C(=O)N2CCC(C(=O)NCc3ccco3)CC2)c2ccccc2O1` (stereo unspecified), the “activity change, negative = cytotoxicity” value was inactive: 5.17%.

Regarding `Cc1ccc(-n2c(SCC(=O)Nc3c(C)cccc3C)nc(O)c(C)c2=O)cc1`, the “activity change, negative = cytotoxicity” value was inactive: 0.392%. Next, `COCCNC(=O)C(=O)NCC(c1cccnc1)N1CCN(c2ccccc2)CC1` (stereo unspecified): inactive: -0.196%; `O=C(Cc1ccc(Cl)cc1)Nc1ccc2nn(-c3ccccc3)nc2c1`: inactive: 20%; `CC(C)CCNc1ncnc2c1cnn2-c1cccc(Cl)c1`: inactive: 8.73%.
